The list shows a part of the results. Repeats are few or missing, and single values can be far off.
Legend:
Assay in all cases: cell count relative to DMSO control; melanoma cells; higher = more viable cells
Settings in all cases: library dose: standard library concentration; 72 h
G361 = test system: G361
IPC-298 = test system: IPC-298
IST-MEL1 = test system: IST-MEL1
LB2518-MEL = test system: LB2518-MEL
LOXIMVI = test system: LOXIMVI
MEL-HO = test system: MEL-HO
MZ2-MEL = test system: MZ2-MEL
MeWo = test system: MeWo
RPMI7951 = test system: RPMI7951
RVH-421 = test system: RVH-421
SkMel28 = test system: SkMel28
SkMel2 = test system: SkMel2
SkMel30 = test system: SkMel30
SkMel5 = test system: SkMel5
UACC257 = test system: UACC257
UACC62 = test system: UACC62
WM115 = test system: WM115
WM1716 = test system: WM1716
WM1745 = test system: WM1745
WM3526 = test system: WM3526
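Note: cells treated in 1,536-well plates, then fixed and DAPI-stained, with nuclei counted from automated high-throughput microscope images.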

Row | SMILES | cell count (G361) [%] | cell count (IPC-298) [%] | cell count (IST-MEL1) [%] | cell count (LB2518-MEL) [%] | cell count (LOXIMVI) [%] | cell count (MEL-HO) [%] | cell count (MZ2-MEL) [%] | cell count (MeWo) [%] | cell count (RPMI7951) [%] | cell count (RVH-421) [%] | cell count (SkMel28) [%] | cell count (SkMel2) [%] | cell count (SkMel30) [%] | cell count (SkMel5) [%] | cell count (UACC257) [%] | cell count (UACC62) [%] | cell count (WM115) [%] | cell count (WM1716) [%] | cell count (WM1745) [%] | cell count (WM3526) [%]
1 | CC[C@]1(O)C[C@H]2CN(CCc3c([nH]c4ccccc34)[C@@](C(=O)OC)(c3cc4c(cc3OC)N(C=O)[C@H]3[C@@](O)(C(=O)OC)[C@H](OC(C)=O)[C@]5(CC)C=CCN6CC[C@]43[C@@H]65)C2)C1 [vincristine] + C[C@]12O[C@H](C[C@]1(O)CO)n1c3ccccc3c3c4c(c5c6ccccc6n2c5c31)CNC4=O [Lestaurtinib] (first compound 0.0005 µM, partner dose 0.02 µM) | 73.3 | 65.9 | 93.5 | 63.2 | 68.7 | 58.9 | 89.3 | 78.9 | 64.2 | 88.1 | 60.5 | 70.8 | 47.8 | 46.9 | 71.6 | 60 | 45.7 | 41.2 | 84.7 | 42.8
2 | O=C(O)c1ccc(-c2c[nH]c3ncc(-c4ccccc4)cc23)cc1C1CCCC1 + Cc1cc(SCc2sc(-c3ccc(C(F)(F)F)c(F)c3)nc2C)ccc1OCC(=O)O [GW0742] (first compound 0.8 µM, partner dose 10 µM) | 71.2 | 85.9 | 75.5 | 95.4 | 87.8 | 72.1 | 84 | 84.7 | 75.1 | 90.4 | 58.7 | 79.6 | 93.5 | 77.8 | 77 | 93.1 | 109 | 95.9 | 105 | 94
3 | COc1cc2c(Oc3ccc4[nH]c(C)cc4c3F)ncnc2cc1OCCCN1CCCC1 [cediranib] + C/C(O)=C(\C#N)C(=O)Nc1cc(Br)ccc1Br [LFM-A13] (first compound 2 µM, partner dose 10 µM) | 89.1 | 91.5 | 129 | 73.6 | 56.3 | 106 | 101 | 103 | 110 | 94.8 | 86.9 | 95.8 | 88.3 | 56.5 | 108 | 95.1 | 110 | 108 | 87.1 | 83.4
4 | CC1(C)NC(=O)N(c2ccc([N+](=O)[O-])c(C(F)(F)F)c2)C1=O [nilutamide] + Cc1cc(SCc2sc(-c3ccc(C(F)(F)F)c(F)c3)nc2C)ccc1OCC(=O)O [GW0742] (first compound 5 µM, partner dose 10 µM) | 93.6 | 109 | 90.3 | 101 | 98.7 | 86 | 102 | 88.4 | 86.9 | 110 | 85.9 | 102 | 84.2 | 86 | 99.5 | 83.1 | 86 | 107 | 99.5 | 86.8
5 | NC(=O)Nc1cc(-c2cccc(F)c2)sc1C(=O)N[C@H]1CCCNC1 + O=C(Oc1ccc([N+](=O)[O-])cc1)N1CCC(C(O)(c2ccc3c(c2)OCO3)c2ccc3c(c2)OCO3)CC1 [JZL184] (first compound 0.1 µM, partner dose 5 µM) | 98.3 | 96.2 | 113 | 67.2 | 90.1 | 93.8 | 103 | 75.4 | 44 | 32.8 | 42.5 | 93.9 | 64.7 | 102 | 102 | 65.6 | 76.4 | 54 | 78.8 | 59.7
6 | Cn1sc(=O)n(Cc2ccccc2)c1=O + C[C@]12O[C@H](C[C@]1(O)CO)n1c3ccccc3c3c4c(c5c6ccccc6n2c5c31)CNC4=O [Lestaurtinib] (first compound 2 µM, partner dose 0.02 µM) | 88.5 | 83.1 | 104 | 55.8 | 110 | 75.1 | 96.2 | 70.1 | 69.7 | 102 | 70.9 | 88.9 | 68.5 | 60.8 | 100 | 80 | 69.4 | 99.6 | 104 | 57.2
7 | Cc1ccc(NC(=O)c2cccc(N(C)C)c2)cc1NC(=O)c1ccc(O)cc1 + C/C(O)=C(\C#N)C(=O)Nc1cc(Br)ccc1Br [LFM-A13] (first compound 10 µM, partner dose 10 µM) | 81.6 | 100 | 77.7 | 85.7 | 109 | 94.8 | 85.9 | 93.1 | 72 | 103 | 58.2 | 99.8 | 86.4 | 83.4 | 111 | 86 | 101 | 100 | 68.1 | 82
8 | Cc1cc(SCc2sc(-c3ccc(C(F)(F)F)c(F)c3)nc2C)ccc1OCC(=O)O + C/C(O)=C(\C#N)C(=O)Nc1cc(Br)ccc1Br [LFM-A13] (first compound 10 µM, partner dose 10 µM) | 92.6 | 97 | 86.3 | 91 | 100 | 93.9 | 81.4 | 92.6 | 114 | 131 | 74.2 | 106 | 94.6 | 64.6 | 88 | 95.1 | 79.1 | 96 | 95.1 | 109
9 | C[C@@H](N)c1ccc(C(=O)Nc2ccnc3[nH]ccc23)cc1 + N.N.[Cl][Pt][Cl] [cisplatin] (first compound 2 µM, partner dose 8 µM) | 84.1 | 93.2 | 93.8 | 93.7 | 56.3 | 60.7 | 58.7 | 89.4 | 65.4 | 40.6 | 92.3 | 93.9 | 80.1 | 67.8 | 56.1 | 91 | 85.9 | 57.6 | 51.6 | 97.7
10 | C[C@@H](N)c1ccc(C(=O)Nc2ccnc3[nH]ccc23)cc1 + C[As](C)SC[C@H](NC(=O)CC[C@H](N)C(=O)O)C(=O)NCC(=O)O [Darinaparsin] (first compound 2 µM, partner dose 2 µM) | 119 | 111 | 98.8 | 144 | 89.4 | 69.5 | 63.7 | 75.5 | 45.2 | 51.2 | 115 | 125 | 96.4 | 54.1 | 48.4 | 76.5 | 88.9 | 39 | 65.4 | 83.4
11 | CCCCCCCCCCCCCCCCCCOP(=O)([O-])OC1CC[N+](C)(C)CC1 [Perifosine] + Cn1cc(C2=C(c3cn(C4CCN(Cc5ccccn5)CC4)c4ccccc34)C(=O)NC2=O)c2ccccc21 [Enzastaurin] (first compound 2 µM, partner dose 4 µM) | 96.8 | 99 | 100 | 89.3 | 138 | 103 | 103 | 75.4 | 26.7 | 47.5 | 88.5 | 95.2 | 105 | 98.4 | 107 | 84.6 | 99.2 | 92.2 | 70.7 | 83.2
12 | CCCCCCCCCCCCCCCCCCOP(=O)([O-])OC1CC[N+](C)(C)CC1 [Perifosine] + C[As](C)SC[C@H](NC(=O)CC[C@H](N)C(=O)O)C(=O)NCC(=O)O [Darinaparsin] (first compound 2 µM, partner dose 2 µM) | 86.6 | 91.3 | 91.6 | 95.4 | 86.9 | 103 | 96.9 | 75.4 | 22.8 | 86.2 | 78.3 | 80.8 | 75.8 | 73.8 | 84.3 | 80.8 | 77.9 | 71.8 | 85.5 | 70.2
13 | CCN(CC)CCCCNc1ncc2cc(-c3cc(OC)cc(OC)c3)c(NC(=O)NC(C)(C)C)nc2n1 + Cc1cc(SCc2sc(-c3ccc(C(F)(F)F)c(F)c3)nc2C)ccc1OCC(=O)O [GW0742] (first compound 0.5 µM, partner dose 10 µM) | 103 | 101 | 84.3 | 98.5 | 98.1 | 88 | 94.5 | 109 | 90.1 | 93.2 | 99.4 | 80.1 | 110 | 90.9 | 110 | 99.3 | 85.5 | 96.3 | 80.7 | 92.8
14 | Cc1cc(N2CCOCC2)cc2[nH]c(-c3c(NC[C@@H](O)c4cccc(Cl)c4)cc[nH]c3=O)nc12 + Cc1cc(SCc2sc(-c3ccc(C(F)(F)F)c(F)c3)nc2C)ccc1OCC(=O)O [GW0742] (first compound 1 µM, partner dose 10 µM) | 86.7 | 77.4 | 97.1 | 96.6 | 58.5 | 99.3 | 102 | 77.8 | 87.3 | 89.6 | 61.7 | 90.1 | 92.5 | 68.9 | 118 | 133 | 102 | 102 | 49.1 | 73.3
15 | Cc1ccc(Nc2nccc(N(C)c3ccc4c(C)n(C)nc4c3)n2)cc1S(N)(=O)=O [Pazopanib] + C[As](C)SC[C@H](NC(=O)CC[C@H](N)C(=O)O)C(=O)NCC(=O)O [Darinaparsin] (first compound 2 µM, partner dose 2 µM) | 63.4 | 63.6 | 90.3 | 70.4 | 54.1 | 78.8 | 57.9 | 79.3 | 60.7 | 97.5 | 66.4 | 84.4 | 70.6 | 54.2 | 73.2 | 60 | 92.7 | 72 | 66.8 | 69.8
16 | Cc1cc(SCc2sc(-c3ccc(C(F)(F)F)c(F)c3)nc2C)ccc1OCC(=O)O + O=c1cc(-c2cccc3c2Sc2ccccc2S3)oc(N2CCOCC2)c1 [KU55933] (first compound 10 µM, partner dose 5 µM) | 73.9 | 77.7 | 85.8 | 94.5 | 99 | 67.5 | 84 | 86.6 | 78.4 | 108 | 74 | 97.5 | 96.4 | 91.5 | 110 | 90.3 | 85.9 | 99.2 | 76.3 | 72.1
17 | NCC(=O)Nc1ccc(-n2nc(C(F)(F)F)cc2-c2ccc3c(ccc4ccccc43)c2)cc1 + Cc1cc(SCc2sc(-c3ccc(C(F)(F)F)c(F)c3)nc2C)ccc1OCC(=O)O [GW0742] (first compound 5 µM, partner dose 10 µM) | 57.9 | 50.6 | 82.1 | 8.09 | 66.3 | 71.7 | 67.7 | 84.8 | 70.9 | 76.2 | 2.87 | 5.39 | 18.9 | 60.4 | 73.7 | 64.9 | 92.2 | 72.4 | 67.7 | 40.1

— the supplement of paper PMC4604168 (melanoma cell lines)
